Laboratory results: PubChem BioAssay AID493208 (National Center for Advancing Translational Sciences (NCATS), 2011)
The campaign covered roughly 44,000 compounds. About 340 (0.77%) were called active. About 5% were inconclusive and are not listed. Calls come from the whole dose curve; as a rule, active = well fitted inhibition curve with a large enough effect; inconclusive = small, poorly fitted or top-dose-only effect; inactive = flat fitted curve, though single readings scatter. The list shows a part of the results.

assay: Acumen qHTS Assay for Inhibitors of the mTORC1 Signaling Pathway in MEF (Tsc2-/-, p53-/-) Cells: Sytravon; settings: phospho-rpS6 immunofluorescence/PI, 24 h; series mostly up to 38.3 µM; activity change, negative = inhibition: at the top concentration;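 note: plate controls were DMSO for no effect and rapamycin for full effect; nearly all actives have a fitted effect of over 50% in size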
Method in brief: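 Tsc2-/-, p53-/- mouse embryonic fibroblasts (empty-vector line) exposed to compound 24 hrs at 37 C, fixed, immunostained for phospho-rpS6 and counterstained with propidium iodide. Acumen laser scanning gives % positive cells from Alexa 488/PI ratio, thresholded using 7.5 nM rapamycin; PI count gives viability.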

Activity change, negative = inhibition, inactive:
Cc1cccc(-c2noc(CN(C(=O)COc3ccc(Br)cc3C)C(C)C)n2)c1 -1.19%, CCn1cc(C(=O)N2CCN(c3cc(C)ccc3C)CC2)c(=O)c2cc(S(=O)(=O)N3CCOCC3)ccc21 -0.334%, COc1ccc(Cl)cc1NC(=O)Cn1c(=O)n(Cc2ccco2)c(=O)c2cccnc21 0.94%, COc1ccc(C(=O)NCCn2cc(SCC(=O)Nc3cccc(C)c3)c3ccccc32)cc1 5.66%, COCCc1nn2c(=O)cc(COC(=O)c3ccc(OC)c(OC)c3)nc2s1 -0.376%, Cc1ccc(C)n1-c1c(C(=O)NCCC(C)C)sc2ncccc12 0%, CCOC(=O)C1CCN(C(=O)Cn2c(=O)cc(C)c3c(C)nn(C)c32)CC1 -15.8%, Cc1oc2ncn(CC(C)C)c(=O)c2c1C(=O)N1CCN(c2cccc(C(F)(F)F)c2)CC1 -5.57%, CCc1nn(-c2ccccc2)c2nc(-c3cccc(OC)c3)c3cc(OC)c(OC)cc3c12 2.87%, Cc1cccc(-n2ncc3c(Nc4ccc(Oc5ccc(Cl)cc5)cc4)ncnc32)c1 0.523%, COc1cc(-c2nc3nc[nH]n3c2Nc2ccc(C(C)C)cc2)ccc1O -0.129%, Cc1ccc(CNC(=O)CCCCn2c(=O)c3ccccc3n(Cc3c(C)cc(C)cc3C)c2=O)cc1 2.32%, COc1cccc(NC(=O)CSC2=Nc3ccccc3C3=NC(CC(=O)NCCc4ccccc4)C(=O)N23)c1 (centres undefined) -4.69%, COc1ccccc1N1CCN(C(=O)Cn2ncc3c([nH]c4ccccc43)c2=O)CC1 2.02%, CCOC(=O)c1ccccc1NC(=O)Cn1c(=O)n(Cc2nc(-c3ccccc3)no2)c(=O)c2ccccc21 -10.8%, CCOCCCNC(=O)NC(C)c1c(-n2cccc2)sc2c1CCN(CC)C2 (centres undefined) 0.547%, COc1ccc(OC)c(S(=O)(=O)N2CCC(c3ccncc3)CC2)c1 -0.686%, CCc1ccc(-n2c(SCc3ccccc3F)nc3[nH]ncc3c2=O)cc1 -13.4%, O=C(CCc1nc(CN2CCN(S(=O)(=O)c3ccc(F)cc3)CC2)no1)N1CCCCC1 -14.3%, CCc1ccc(C(=O)c2cn(CC(=O)NCCc3ccc(OC)c(OC)c3)c3nc(C)ccc3c2=O)cc1 3.45%, O=C(c1ccc2c(c1)N(Cc1ccccc1F)C(=O)c1ccccc1S2(=O)=O)N1CCCCC1 -5.7%, COc1cccc(NC(=O)CSC2=Nc3ccccc3N=C(c3ccc(F)cc3)C2)c1 -0.452%, O=c1nc2sc3ccccc3n2c(=O)n1-c1ccc(Cl)c(Cl)c1 -2.62%, COc1ccccc1NC(=O)Cn1c(=O)n(-c2cccc(C(C)=O)c2)c(=O)c2c3c(sc21)CN(C(C)=O)CC3 2.86%, Cc1ccc(C2C=C(c3ccc(Cl)cc3)Nc3nc(NS(=O)(=O)c4ccccc4)nn32)cc1 (centres undefined) 2.19%, CCN1CCN(C(=O)c2cnn(-c3ccc(F)cc3)c2-n2cccc2)CC1 -3.12%, O=C(CCC1N=C2c3ccccc3N=C(SCC(=O)Nc3ccccc3F)N2C1=O)NCc1ccccc1 (centres undefined) 3.12%, CC(=O)Nc1ccc(NC(=O)c2oc3ccc4c(c3c2C)C(=O)CC(C)(C)O4)cc1 -2.38%, O=c1c(N2CCc3ccccc3C2)csc2ccccc12 3.95%, O=C(NCCc1ccccc1)c1ccc2c(c1)N(Cc1ccccc1F)C(=O)c1ccccc1S2=O (centres undefined) -1.44%, Cc1ccc(-c2ccc(=O)n(CC(=O)Nc3cccc(C#N)c3)n2)cc1 3.11%, CNC(=O)C1CCC(Cn2c(=O)c3sccc3n(CC(=O)NCc3ccc(F)cc3)c2=O)CC1 (centres undefined) -0.255%, CCOc1ccc(-c2nc3c(c(SCC(=O)N4CCCCC4)n2)Cc2ccccc2O3)cc1 2.92%, COc1ccc(NC(=O)c2ccc3c(=O)n4nc(Nc5cccc(Cl)c5C)sc4nc3c2)cc1 -6.22%, C=Cc1ccc(Cn2c(C(=O)O)c(CNCc3ccccc3)c3ccc(C)cc32)cc1 -24.7%, CC1=C(C(=O)Nc2cccnc2)C(c2ccccc2)n2nc(-c3ccc(O)cc3)nc2N1 (centres undefined) -3.63%, Cc1ccc(C2CCN(C(=O)c3cnn(-c4ccc(C)cc4)c3C3CCN(C(=O)OC(C)(C)C)CC3)C2)cc1 (centres undefined) 1.07%, Cc1ccc(-c2csc(=Nc3ccc(F)cc3)n2Cc2ccc3c(c2)OCO3)cc1C -23.4%, Cc1c(Cl)cccc1NC(=O)c1ncn(-c2ccccc2)n1 7.1%, COc1cccc(NC(=O)CC(C)S(=O)(=O)c2ccc3c(c2)NC(=O)CO3)c1 (centres undefined) -5.47%, Cc1cccc(C(=O)Nc2nnc(S(=O)(=O)N(C)Cc3ccco3)s2)c1 0%, COc1ccc(CCNC(=O)CSc2nc(-c3ccc(F)cc3)cc(C(F)(F)F)n2)cc1OC -7.82%, Cc1nn(-c2ccccc2)c2sc(C(=O)Nc3ccccc3Br)cc12 -28.6%, Cc1ccc(NC(=O)CN2C(=O)C3(SCC(=O)N3c3cccc(Cl)c3)c3ccccc32)cc1C (centres undefined) -6.21%, Cc1ccc(NS(=O)(=O)c2ccc3c(c2)CCCN3C(=O)C2CCC2)cc1Cl -25.3%, Nc1c(C(=O)Nc2ccc(C(=O)O)cc2)sc2nc3c(cc12)CCCC3 -5.92%, COc1cc(OC)cc(C(=O)Nc2ccc(S(=O)(=O)Nc3ncccn3)cc2)c1 0.125%, Cc1nc2nncn2c(NCc2ccc(F)cc2)c1C -15.4%, COCCNc1nc2c(S(=O)(=O)c3ccc(C)c(C)c3)nnn2c2ccc(Cl)cc12 -2.52%, O=C(Nc1nnc(S(=O)(=O)Nc2ccccc2)s1)c1ccccc1Cl -4.84%, CCc1noc(-c2ccc(N3CCCCC3C)c([N+](=O)[O-])c2)n1 (centres undefined) 0.357%, Cc1ccc(NC(=O)CCS(=O)(=O)c2cc3c4c(c2)CCN4C(=O)CC3)c(C)c1 0%, O=C(NCc1ccc2c(c1)CCN2C(=O)c1ccc(Cl)cc1)c1cccc(F)c1 -0.106%, CCCCN(C)C(=O)C1CCC(CNS(=O)(=O)c2ccc(Cl)cc2)CC1 (centres undefined) -11.2%, CCC(Oc1ccccc1)C(=O)Nc1cc(-c2ccccc2OC)nn1-c1ccccc1 (centres undefined) 1.69%, Cc1ccc(-c2nc3c(c(SCC(=O)Nc4ccccc4Cl)n2)Cc2c(CO)cnc(C)c2O3)cc1 2.85%, CCOC(=O)c1c(S(=O)(=O)NCC(=O)NCc2cccc(C)c2)c(C)n(C)c1C -0.837%, Cc1ccc(CS(=O)(=O)c2ncc(Cl)c(C(=O)Nc3nc4ccc(F)cc4s3)n2)cc1 -1.1%, O=C(COc1ccccc1)Nc1nnc(S(=O)(=O)N2CCCC2)s1 9.92%, COc1ccccc1NC(=O)C(Cc1ccccc1)NS(=O)(=O)c1ccc2c(c1)c(=O)n(C)c(=O)n2C (centres undefined) -0.717%, O=C(Nc1ccc2oc(-c3ccc4ccccc4c3)nc2c1)c1ccccc1F 0.435%, O=C(OCC1CCCO1)c1ccc2c(c1)N(Cc1ccccc1Cl)C(=O)c1ccccc1S2(=O)=O (centres undefined) 7.12%, CCCCOc1cccc(NC(=O)CSc2nnc(C)s2)c1 12.2%, Cc1cc(Nc2cccc(C(F)(F)F)c2)nc2ccc(NC(=O)c3ccc(=O)[nH]c3)cc12 0.848%, O=C(NCc1ccc(F)cc1)c1c(O)nc2ccccn2c1=O 1.12%, CN(Cc1ccccc1)c1ncnc2onc(-c3ccc(F)cc3)c12 -6.54%, COc1ccc(OC)c(NC(=O)CSc2nc3ccccc3nc2N2CCCCC2)c1 -1.97%, CCCC(=O)OCc1cnc(C)c2oc(=O)c(C(=O)Nc3ccccc3)cc12 12.9%, COc1ccc(NC(=O)COc2ccc(S(=O)(=O)NC3CCCCC3)cc2)cc1OC -10.7%, CC(NC(=O)CCNS(=O)(=O)c1cccc2nsnc12)c1ccccc1 (centres undefined) -7.49%, O=C(Nc1cccc(Cl)c1)c1cnc[nH]1 15.8%, COc1ccc(Br)cc1C1Sc2ccccc2NC2=C1C(=O)c1ccccc12 (centres undefined) -12.6%, Cc1ccc2c(=O)cc(CSCC(=O)Nc3nnc(C)s3)[nH]c2c1 -6.94%, COc1cc(Cl)c(C)cc1NC(=O)Cn1ncc2c([nH]c3ccccc32)c1=O -0.567%, COc1cccc(C(c2c(O)cc(C)n(Cc3ccco3)c2=O)N2CCN(c3ccccc3)CC2)c1 (centres undefined) -5.3%, O=C(CSc1nccn1Cc1ccc(Cl)cc1)Nc1ccc2c(c1)OCCO2 -0.394%, CCOCCCn1c(SCC(=O)Nc2ccc(C)cc2)nc2ccccc2c1=O -2.22%, Cc1cc(C)n(C(C)CC(=O)NCc2ccc(N(C)C)cc2)n1 (centres undefined) -22.9%, COC(=O)c1cc2sccc2n1Cc1nc(-c2ccc(Cl)cc2)oc1C -3.11%, CCc1ccccc1NC(=O)c1ccc2c(c1)N(Cc1cc(C)ccc1C)C(=O)c1ccccc1S2(=O)=O 0.0579%, COc1ccc(CNC(=O)C(C)n2ccc3cc(S(=O)(=O)N4CCCC4)ccc32)cc1OC (centres undefined) 0.23%, Cc1cc(C)c(NC(=O)C2CCN(c3nnc(C)c4c(C)n(-c5ccccc5)nc34)CC2)c(C)c1 -7.5%, COc1ccccc1NC(=O)C1=C(C)Nc2nc(SCc3ccccc3C)nn2C1CC(C)C (centres undefined) 0.306%, Cc1cc(C)cc(NS(=O)(=O)c2ccc3c(c2)CCCN3C(=O)C2CCC2)c1 -0.272%, COc1ccc(-n2ncc(C(=O)N3CCc4ccccc4C3)c2C2CCN(C(=O)OC(C)(C)C)CC2)cc1 -1.91%, CCc1ccc2oc(C(=O)Nc3nonc3CC)c(C)c2c1 -2.85%, Cc1oc2ncn(C)c(=O)c2c1C(=O)NCCCN1CCCC(C)C1 (centres undefined) 1.65%, O=C(Nc1ccc(Br)cc1F)c1ncoc1-c1ccco1 1.83%, COc1ccc(CNC(=O)CN(c2cc(C)cc(C)c2)S(=O)(=O)c2c(C)[nH]c(=O)[nH]c2=O)cc1 -1.43%, COc1ccc(-c2cc(C(F)(F)F)n3nc(C(=O)NCC45CC6CC(CC(C6)C4)C5)cc3n2)cc1 -11.4%, O=C(COc1ccccc1)N(Cc1cccnc1)c1nc2ccc(F)cc2s1 2.2%, CCOc1cc(-c2nc(-c3ccc(Br)cc3)no2)cc(OCC)c1OCC 2.59%, O=C(CN1C(=O)COc2ccc(S(=O)(=O)N3CCOCC3)cc21)N1CCN(c2ccccc2)CC1 -28.9%, COCCCNC(=O)c1ccc2c(=O)n(Cc3ccc(OC)cc3)c(=O)[nH]c2c1 -17.3%
